Target: T1, EGFR-Fc fusion protein (UniProt P00533 in part, limits assumed)
T1 construct: extracellular domain; also called Fc fusion protein of the extracellular region of EGFR; immobilized EGFR; not shown: Fc part
Assay: ELISA on immobilized receptor-Fc

B1: scFvEGFR-MHD2-scFvHER2 (bispecific antibody)
chain: DAAQPAMAEVQLVESGGGLVQPGGSLRLSCAASGFSLTNYGVHWVRQAPGKGLEWLGVIWSGGNTDYNTPFTSRFTISRDNSKNTLYLQMNSLRAEDTAVYYCARALTYYDYEFAYWGQGTTVTVSSGGGGSGGGGSGGGGSDIQLTQSPSFLSASVGDRVTITCRASQSIGTNIHWYQQKPGKAPKLLIKYASESISGVPSRFSGSGSGTEFTLTISSLQPEDFATYYCQQNNNWPTTFGAGTKLEIKRGSLGGSGGAELPPKVSVFVPPRDGFFGNPRKSKLICQATGFSPRQIQVSWLREGKQVGSGVTTDQVQAEAKESGPTTYKVTSTLTIKESDWLGQSMFTCRVDHRGLTFQQNASSMCVPDGGGSGGGTGSGG[about 120 residues not given here]GGGGSGGGGSGGGTG[about 100 residues not given here]RAAAHHHHHH
notes: Tetravalent, bispecific homodimer, His6; also called scFvA-MHD2-scFvB; bispecific MHD2 fusion protein
- binding result: binds

— patent US20170327594A1 (UNIVERSIT T STUTTGART, published 2017)
